Test results reported in ChEMBL document CHEMBL4888484, “Replenishing the malaria drug discovery pipeline: Screening and hit evaluation of the MMV Hit Generation Library 1 (HGL1) against asexual blood stage Plasmodium falciparum ,using a nano luciferase reporter read-out” (2022).
Screen size: about 150,000 compounds; about 540 (0.36%) showed an effect of 50% or more. The list shows a part of the results.

Test system: Plasmodium falciparum
Experiment: Primary screen in NF54 nanoGlo assay, in single point, at 2uM, 72h; a lower Z score goes with more inhibition
Type: functional, Erythrocyte
Details: timepoint 72 hour

| Compound | % Inhibition [%] | Z score |
| --- | --- | --- |
| Brc1ccc(CN2CCC(CC3CC3)(c3noc(C4CCOCC4)n3)CC2)o1 | -12 | 1.63 |
| Cc1ccc(CN(C)C(=O)[C@H]2CCN(C3CCCCC3)C2)o1 | 1 | -0.2 |
| Cc1nn(C)c(C)c1CCC(=O)N1CCN(C2Cc3ccccc3C2)CC1 | -20 | 2.59 |
| CCc1nc(CN2CCC[C@H]2c2cc(OC)ccc2OC)n[nH]1 | -10 | 1.08 |
| CC1CC(C(=O)O)CN(C(=O)Nc2nnc(-c3c(F)cccc3F)s2)C1 (configuration not stated) | -12 | 1.08 |
| COC(=O)c1ccc([C@@H]2C3=C(O)N(C(C)=O)CC3=Nc3cccc4[nH]cc2c34)cc1 | 8 | -1.25 |
| C[C@@H](COc1ccccc1)NCCc1nc(C2CC2)no1 | -6 | 0.96 |
| CC1(NC(=O)Nc2cnns2)CN(C(=O)OC(C)(C)C)C1 | -14 | 2.07 |
| CCN1C(=O)Cc2cc(NC(=O)N3CCNC3=O)ccc21 | -9 | 1.64 |
| Cc1ccc(-c2cc(C(=O)Nc3ccc(S(=O)(=O)N4CCCC[C@@H]4C)cc3)no2)cc1F | -9 | 1.74 |
| Cn1cc(CCNC(=O)N2CCS(=O)(=O)CC2)c2ccc(Cl)cc21 | -9 | 1.18 |
| CCCc1n[nH]cc1C(=O)N(C)Cc1ccoc1 | -14 | 1.33 |
| CN(C)c1ccc(C(N)=NOCc2csc(C3CCCCC3)n2)cc1 | 2 | -0.23 |
| Cc1nc(NS(=O)(=O)[C@H]2CCCOC2)sc1C | 1 | -0.09 |
| CCNS(=O)(=O)[C@H]1CCN(C(=O)c2cnc(-c3ncccn3)s2)C1 | 7 | -1.22 |
| Cn1ncnc1NC(=O)NCc1cccnc1N1CCOCC1 | -7 | 0.91 |
| CC[C@H](NCc1cn(-c2ccccc2F)nc1-c1cc(C)sc1C)c1ccncc1 | -5 | 0.76 |
| CCOC(=O)C1CCCN(C(=O)c2cnc(-c3cccc(C)c3)nc2N2CCCCC2C)C1 (configuration not stated) | 4 | -0.48 |
| Cc1ncc2ncccc2c1Br | -4 | 0.8 |
| Cc1cnn(Cc2cccc(F)c2)c1NC(=O)C(C)N1C[C@@H](C)O[C@@H](C)C1 (some centres not stated) | -7 | 0.9 |
| Cc1nc(N)nc(C)c1CC(=O)N1CCN(c2ccc3[nH]ncc3c2)C(=O)C1 | 0 | -0.06 |
| CN1CCN(C(=O)c2cccc(S(C)(=O)=O)c2)c2ccccc2C1 | 0 | 0.07 |

| Compound | % Inhibition [%] | Z score |
| --- | --- | --- |
| Cc1nn(-c2ccccc2)c(Oc2ccccc2F)c1CCC(=O)NCc1ccccc1 | -16 | 1.99 |
| COc1ccc(CN2CCn3nc(C(=O)NCc4ccccn4)cc3C2=O)cc1 | 0 | -0.04 |
| COc1ccccc1C(=O)Nc1ccc2nc(NC(=O)c3ccccc3OC)sc2c1 | -28 | 3.24 |
| CCN(c1ccc2ccccc2c1)S(=O)(=O)c1ccc(C(=O)O)c(F)c1 | 5 | -0.72 |
| CCCC1CCc2ccccc2N1CC(=O)NCC1CCOC1 (configuration not stated) | -8 | 1.61 |
| CC(C)N(C(=O)[C@H]1CCS(=O)(=O)C1)c1ccc(F)cc1Cl | -1 | 0.17 |
| Cn1ccc(C(=O)N[C@](C)(C#N)C2CCCCC2)n1 | -3 | 0.37 |
| CC(=O)N[C@H](CC1CCC1)C(=O)N1CCN(Cc2cn[nH]c2)CC1 | -3 | 0.35 |
| CCc1nsc(N2CCCCCC2)n1 | -9 | 0.89 |
| Cc1cc(N2CCn3nc(CN4CCc5ccc(F)cc5C4)cc3C2)nc(N)n1 | -3 | 0.48 |
| Cc1noc(C)c1S(=O)(=O)NCC1(c2ccc([C@H](C)O)s2)CCCC1 | 9 | -1.29 |
| Cc1noc(C)c1C(=O)Oc1ccc(O[C@H]2CCCCNC2=O)cc1 | 2 | -0.4 |
| O=C(NCC1CCCCC1)C1CCN(c2cnc(N3CCCCCC3)nc2)CC1 | 4 | -0.52 |
| C[C@H]1CCCN1C(=O)c1cc(-c2cnc(N(C)C)nc2)nc2ccccc12 | -10 | 1.38 |
| O=C(Nc1ccc2c(c1)OCO2)c1ccc2[nH]cnc2c1 | -2 | 0.37 |
| COc1cc2c(cc1CNC1CCN(Cc3cccs3)CC1)OCO2 | -8 | 1.26 |
| C=CCN(CCO)C(=O)Nc1ccc(N2CCCC2)c(C)c1 | -13 | 1.33 |
| COC(=O)N1CCC(CNC(=O)NC2CCOCC2)CC1 | 8 | -1.09 |
| O=C(Nc1ccc2c(c1)OCCO2)c1ccc(CN2C(=O)CNC2=O)cc1 | -15 | 2.09 |
| COc1ccc(-c2c(C)nn3c2NC(=O)CCC3=O)cc1S(=O)(=O)Nc1ccccc1C | -2 | 0.19 |
| Cc1ccc(CN(Cc2ccc3c(c2)OCO3)C[C@H](O)COCC(C)C)o1 | -15 | 2.1 |
| COC(C)c1noc(CN2CCCC2C(O)C(F)(F)F)n1 (configuration not stated) | -8 | 0.81 |

| Compound | % Inhibition [%] | Z score |
| --- | --- | --- |
| COc1cccc(C[C@@H]2C(=O)Nc3ccc(Br)cc32)c1OC1CCCC1 | 17 | -1.51 |
| CC1OCCC1S(=O)(=O)N[C@H]1C[C@H](c2ccccc2F)C1 (some centres not stated) | 3 | -0.51 |
| COc1ccc([N+]2=C3CCCCN3C[C@]2(O)c2ccc(OC(F)F)cc2)cc1 | -4 | 0.52 |
| Cc1ccsc1C(=O)NCc1ccc(N2CCCC2)cc1 | -19 | 1.71 |
| CCn1nc(-c2ccco2)nc1C[C@H]1C(=O)NCCN1C(C)C | 2 | -0.22 |
| COCc1nocc1C(=O)N[C@H]1CCOC(C)(C)C1 | 35 | -3.99 |
| COC(=O)N[C@@H](C)C(=O)NCc1cnc(C)cc1C | -7 | 0.91 |
| CCc1c(C)nc2nc(-c3ccco3)nn2c1NCc1ccc(F)cc1 | -26 | 4.71 |
| O=S(=O)(CCNCc1cc(O)c2cccc(Cl)c2n1)N1CCCC1 | -3 | 0.48 |
| COCCNc1c(-c2ccc(F)cc2)nc2sc(C(=O)N3CCCC3)c(C)n12 | -21 | 3.56 |
| CN(CC(C)(CO)CO)c1ccc(F)cn1 | 1 | -0.18 |
| CCc1ccnc(CNC(=O)N[C@H]2CCCC23CCOCC3)c1 | -5 | 0.87 |
| Cc1ccc(NC2=NC(N)=NC3(CCCCC3)N2)c(C)c1 | -4 | 0.48 |
| CC1=C[C@@H](CO)[C@H](C(C)C)C[C@H]1Cc1nnc(C(C)(C)C)o1 | 23 | -2.61 |
| CC[C@@H](C#N)S(=O)(=O)NC(C)(C)Cc1cccc(OC)c1 | 3 | -0.37 |
| Cc1cc(CNC(=O)N2CCN(Cc3ccccc3)C(C)(C)C2)no1 | 18 | -2.26 |
| Cc1noc(C)c1CN1CCC[C@H](Cn2cc(C(C)(C)O)nn2)C1 | -21 | 1.9 |
| O=C(NC1CCCC1)c1cc2c(s1)CCCCC2 | -9 | 0.74 |
| Cc1nc(CN)cc(N[C@@H](C)C2CCCCC2)n1 | -5 | 0.8 |
| CC[C@H](C)Oc1ccc(-c2nc(=O)c(CCC(=O)NC3CCCCC3)n[nH]2)cc1 | 1 | -0.16 |
| O=C(Nc1cccnc1)c1ccc(Oc2ncnc3sccc23)cc1 | -10 | 1.55 |
| Cc1cc(CS(=O)(=O)c2ccccc2F)on1 | 1 | -0.18 |

| Compound | % Inhibition [%] | Z score |
| --- | --- | --- |
| CN(CCO)c1ncc(Cl)cc1F | 2 | -0.22 |
| CCNc1ncc(S(=O)(=O)N(C)Cc2cscn2)cc1Cl | -5 | 0.7 |
| O=C(O)C1(Oc2ccncc2)CCC(c2ccccc2)C1 (configuration not stated) | -17 | 3.23 |
| CCOC(=O)C(=O)c1n[nH]c(C(=O)OC)c1C(=O)OC | -5 | 0.65 |
| CNC(=O)Cc1noc(-c2cc3ccccc3cc2O)n1 | -5 | 0.54 |
| CC(C)(C)Oc1nc(NC2CCC3(CC2)OCCO3)ncc1Br | -6 | 0.53 |
| C#Cc1cccc(NC(=O)CCc2c(C)nc3[nH]n(C)c(=O)c3c2C)c1 | -10 | 0.95 |
| Cc1ccc(S(=O)(=O)NC[C@H]2OC[C@@H](NC(C)C)[C@@H]2O)cc1 | -8 | 0.97 |
| CC(C)[C@H](CC(=O)NS(C)(=O)=O)c1ccccc1 | -7 | 0.84 |
| Cc1cncn1C1CCN(C(=O)c2cc(Br)co2)CC1 | -4 | 0.71 |
| O=C1CCc2cc(NCc3cc4cc(F)ccc4o3)ccc2N1 | -6 | 0.93 |
| Cc1c2ccc(NC(=O)C3CCOCC3)cc2nn1C | 3 | -0.48 |
| OC[C@H]1CN(Cc2cc(O)c3cccc(F)c3n2)C[C@@H]1CO | 6 | -1.11 |
| CCN1C(=O)C[C@](CC(=O)N2CCC(COC)CC2)(c2cccc(C(F)(F)F)c2)C1=O | -1 | 0.24 |
| O=C1[C@@H]2CCCCN2C(=O)N1c1cncc(Br)c1 | -7 | 0.63 |
| Cc1ccc(Cl)cc1NC(=O)c1cccn2c(-c3ccc(F)cc3)nnc12 | -11 | 1.82 |
| O=C(c1cccc(F)c1)N1CCC(N2CC3(CCCCC3)[C@H]2c2ccccc2)CC1 | 0 | -0.03 |
| Nc1cc(-c2ccc(F)cc2)nn1-c1nc(-c2ccc(Cl)cc2)cs1 | 12 | -2.1 |
| Cc1nc(N2CCCC2)nc(C)c1NC(=O)COc1ccc(Cl)cc1Cl | -11 | 1.68 |
| CCc1nc([C@H](C)NC(=O)c2cc(Cn3cccn3)on2)cs1 | -1 | 0.29 |
